PubChem BioAssay AID1347043 (National Center for Advancing Translational Sciences (NCATS), 2019)
Screen size: about 76,000 compounds; about 1,900 (2.5%) were called active. The inconclusive results got no clear call from the source; some entries with a clear call stand among them for comparison. The call rests on the fitted dose curve; in most records, active means well fitted inhibition curve with a large enough effect; inconclusive means small, poorly fitted or top-dose-only effect; inactive means flat fitted curve, though single readings scatter. Where the call is inconclusive, the potency comes from a doubtful curve fit.

Each molecule was assayed against Luciferin 4-monooxygenase (Photinus pyralis) (UniProt P08659) (assay: Firefly luciferase inhibition profiling of diverse chemical library using quantitative high-throughput screening). Details: purified P. pyralis luciferase, luminescence, biochemical; activity change, negative = inhibition: at 115 µM (top of the series) unless noted.
Chain of UniProt P08659 (P08659 whole entry, looked up): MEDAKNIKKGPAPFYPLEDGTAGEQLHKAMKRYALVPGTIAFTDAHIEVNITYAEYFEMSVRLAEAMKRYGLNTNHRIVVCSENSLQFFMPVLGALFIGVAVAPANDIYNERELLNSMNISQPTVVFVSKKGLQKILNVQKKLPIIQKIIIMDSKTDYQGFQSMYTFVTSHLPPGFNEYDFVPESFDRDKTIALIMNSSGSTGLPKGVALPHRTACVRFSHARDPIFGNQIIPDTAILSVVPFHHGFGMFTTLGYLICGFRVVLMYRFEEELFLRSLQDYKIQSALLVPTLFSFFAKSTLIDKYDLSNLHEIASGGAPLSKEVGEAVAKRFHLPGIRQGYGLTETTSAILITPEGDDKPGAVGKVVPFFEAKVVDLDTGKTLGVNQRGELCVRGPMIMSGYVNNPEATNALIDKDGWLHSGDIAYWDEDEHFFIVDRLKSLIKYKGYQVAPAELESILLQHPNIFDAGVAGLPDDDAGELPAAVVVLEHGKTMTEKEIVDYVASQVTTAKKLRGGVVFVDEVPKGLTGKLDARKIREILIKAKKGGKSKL
Source text: Firefly (Photinus pyralis) luciferase is one of the most commonly used transcriptional reporters for a number of reasons. It is considered one of the more dynamically responsive reporters - that is, responsive to changes in reporter transcription - as it requires no post-translational modifications and is enzymatically active directly after protein synthesis (Wood, 1998). Additionally, the half-life of the luciferase protein is short relative to other reporter-gene products (Wood, 1995). Whereas reporters with long half-lives potentially allow for increased signal due to accumulation of reporter-gene product, once accumulated in the cell, dynamic changes in reporter-gene expression may be difficult to detect(Fan and Wood, 2007; Almond et al., 2004). It has been shown that wild-type P. pyralis luciferase has a half-life of approximately four hours in mammalian cells (Thompson et al., 1991). Firefly luciferase reporter-gene assays are also generally considered one of the most sensitive assay types (Wood, 1995; Wood, 1998). Although light produced in a bioluminescence reaction is of lower intensity than that produced during fluorescence emission, this is offset by little to no background light inherent to luminescent assays. Thus the luciferase reporter can be expressed at much lower levels than fluorescent proteins while still providing robust signal. However, it was initially observed, in 1991, by Thompson et al., that compounds that resemble the substrates of firefly luciferase (FLuc) can act as competitive inhibitors of the enzyme, and that these compounds, upon interaction with luciferase in the cell, can actually stabilize the protein and increase its half-life. Accumulated intracellular FLuc protein can be measured as an increase in luminescence signal, upon addition of detection reagents (which contain high concentrations of FLuc substrates) commonly used in high-throughput screening. In cell-based reporter gene assays that use FLuc as the reporter gene to quantitate the potential influence of a given compound against the target biology, this apparent increase in luminescence can mistakenly be interpreted as identification of a compound that is active against the target of interest. FLuc inhibitory compounds that stabilize the FLuc protein will give an identical read-out, making it difficult to distinguish compounds that are active against the target from those active against FLuc. In summary, the results generated here constitutes a valuable resource for the scientific community and provides insight on identifying compounds with inhibitory activity for the commonly-used reporter, firefly luciferase. References: -Almond, B., Zdanovsky, A., Zdanovskaia, M., Ma, D., Stecha, P., Paguio, A., Garvin, D., and Wood, K. (2004). Introducing the Rapid Response Reporter Vectors. Promega Notes 87, 18-22. -Fan, F., and Wood, K.V. (2007). Bioluminescent assays for high-throughput screening. Assay Drug Dev Technol 5, 127-136. -Thompson, J.F., Hayes, L.S., and Lloyd, D.B. (1991). Modulation of firefly luciferase stability and impact on studies of gene regulation. Gene 103, 171-177. -Wood, K.V. (1998). The chemistry of bioluminescent reporter assays. Promega Notes 65, 14-20. -Wood, K.V. (1995). Marker proteins for gene expression. Curr Opin Biotechnol 6, 50-58.
Reagents: 50mM Tris acetate, pH 7.5; 10mM Mg acetate; 10uM D-luciferin (Sigma #L9504); 10uM ATP; 0.01% Tween-20; 0.05% BSA; 10nM P. pyralis luciferase (Sigma #L9506) Control compounds used were two known firefly luciferase inhibitors (compounds (2) and (5) in Auld et al., 2010), and DMSO. Assay Summary: Three microliters containing firefly luciferase substrates in buffer (final concentrations: 50mM Tris acetate, pH 7.5, 10mM Mg acetate, 0.01% Tween-20, 0.05% BSA, 10uM D-luciferin, and 10uM ATP) are dispensed into each well of a Greiner white, solid-bottom 1536-well format plate using a flying reagent dispenser (FRD). […]
Further: nearly all actives have a fitted effect of over 65% in size.
On the % scale 0 is the no-effect control and ±100 the full control effect; tags describe the fitted curve by direction and shape.

| SMILES | activity change, negative = inhibition | Potency |
| --- | --- | --- |
| COc1cccc(C(=O)N2CC[C@@H]3CN(S(C)(=O)=O)[C@@H]3C2)c1C | inactive: -0.117% |  |
| COc1ccccc1C(=O)N1CCc2c(nc3cc(-c4ccccc4Cl)[nH]n3c2=O)C1 |  | inconclusive: 35.5 µM [inhibitor, partial curve] |
| CNC(=O)c1cccc(-c2cnc3[nH]cc(CC(=O)Nc4ccccc4C)c3c2)c1 |  | inconclusive: 14.1 µM [inhibitor, full curve] |
| COC(=O)[C@@H]1Cc2c([nH]c3ccccc23)[C@H]2C[C@@H](NCCN3CCOCC3)C[C@@H](c3ccccc3)N21 | inactive: -24.5% |  |
| COCCCN1Cc2cc(NC(=O)Cc3ccc(OC)cc3)ccc2OC(C)C1=O (centres undefined) |  | inconclusive: 44.7 µM [inhibitor, partial curve] |
| O=C(Nc1ccc(F)cc1)N1C[C@@H]2OCC(=O)N(Cc3ccc(OC(F)(F)F)cc3)[C@@H]2C1 |  | inconclusive: 50.1 µM [inhibitor, partial curve] |
| COc1cncc([C@@H](NC(=O)c2scc3c2OCCO3)C2CC(O)C2)c1 (some centres undefined) | inactive: -2.58% |  |
| COCC(=O)N1CCC(Oc2nccnc2N2CCc3ccccc32)C1 (centres undefined) |  | active: 35.5 µM |
| CCOc1ccc(NC(=O)C23CCCC=C2N(CC)C(=O)CC3)cc1 (centres undefined) |  | inconclusive: 50.1 µM [inhibitor, partial curve] |
| CC(=O)NC1(C)CCN(Cc2cccc(-c3ccc(C(=O)c4ccccc4)cc3)c2)C1 (centres undefined) |  | active: 39.8 µM |
| O=C(C1CCN(c2nc(-c3ccccc3)nc3c2CCC3)CC1)N1CCCNCC1 | inactive: 5.31% |  |
| Cc1ccc(NC(=O)N2CCc3[nH]c4ccc(F)cc4c3C2)cc1 |  | inconclusive: 44.7 µM [inhibitor, partial curve] |
| O=C(NC1CCCN(c2cc(-c3ccc(F)cc3)[nH]n2)C1)c1cc2ccccc2[nH]1 (centres undefined) |  | active: 20 µM |
| CCN1c2cc(C(=O)NCc3ccc(SC)cc3)ccc2C(=O)N2CCCCCC21 (centres undefined) | inactive: -13.1% |  |
| CN1CCc2[nH]cnc2C12CCN(C(=O)c1cccc(-n3cccn3)c1)CC2 | inactive: 7.41% |  |
| O=C(NCC1CCCN(C(=O)c2ccsc2)C1)c1ccc(-c2ccccc2)cc1 (centres undefined) |  | inconclusive: 44.7 µM [inhibitor, partial curve] |
| CC(C)N(Cc1ccccc1)Cc1nnc2cc(-c3nc(-c4ccccc4)no3)ccn12 |  | inconclusive: 10 µM [inhibitor, full curve] |

| SMILES | activity change, negative = inhibition | Potency |
| --- | --- | --- |
| COc1ccc(C(CC(=O)N(C)Cc2cc(C)no2)c2ccccc2)cc1 (centres undefined) |  | inconclusive: 56.2 µM [inhibitor, partial curve] |
| C=CCNC(=O)c1csc2nc(-c3cccc(C(F)(F)F)c3)cn12 |  | inconclusive: 50.1 µM [inhibitor, partial curve] |
| O=C(Nc1ccccc1F)C1CCN(C(=O)c2ncn3c2COC(c2ccc(F)cc2)C3)CC1 (centres undefined) |  | inconclusive: 39.8 µM [inhibitor, partial curve] |
| FC(F)(F)c1ccc(CNc2cc(Cl)nc3ccnn23)cc1 | inactive: -4.25% [at 172 µM] |  |
| COCCN1C(=O)CCc2cc(NC(=O)c3ccc4c(c3)OCO4)ccc21 |  | active: 39.8 µM |
| CCS(=O)(=O)Nc1ccc(C2(C(=O)N3CCN(CC(C)C)CC3)CCCCC2)cc1 | inactive: -6.03% |  |
| COc1ccc(Cl)cc1NC(=O)c1cc(-c2ccc[nH]2)n[nH]1 |  | inconclusive: 79.4 µM [inhibitor, partial curve, poor fit] |
| O=C(NCc1cc(F)ccc1F)C1CCN(C(=O)c2ncn3c2COC(c2ccc(F)cc2)C3)CC1 (centres undefined) |  | active: 44.7 µM |
| Cc1cccc(OCC(=O)N2CCC(n3cc(-c4nc(-c5ccccc5)no4)nn3)C2)c1 (centres undefined) |  | inconclusive: 56.2 µM [inhibitor, partial curve, poor fit] |
| COc1ccc(CN2C[C@@H]3C(=O)N(Cc4ccc5c(c4)OCO5)C(=O)[C@@H]3C2)c(OC)c1 | inactive: 0.935% |  |
| COc1ccc(CC(=O)N2c3ccccc3CC2c2nc(C(C)C)no2)cc1OC (centres undefined) |  | inconclusive: 39.8 µM [inhibitor, partial curve] |
| O=C(CCC1CCN(c2cc(NC3CC3)ncn2)CC1)NCc1ccc(F)cc1 |  | inconclusive: 39.8 µM [inhibitor, partial curve] |
| COc1cccc(-c2ncc3c(n2)OCCN(Cc2ccc(F)cc2F)C3=O)c1OC | inactive: -12.3% [at 172 µM] |  |
| Cc1nn(-c2ccc(C(C)(C)C)cc2)c(C)c1[C@@H]1C=C[C@@H](NC(=O)CC(C)(C)CC(=O)O)C1 |  | inconclusive: 50.1 µM [inhibitor, partial curve] |
| Cc1cn2nc(C(=O)NCC3CCCO3)cc2c(=O)[nH]1 (centres undefined) |  | inconclusive: 44.7 µM [inhibitor, partial curve] |
| Cc1ccc(-c2cc(N3CCCN(C(=O)Cc4ccsc4)CC3)n[nH]2)cc1C |  | inconclusive: 56.2 µM [inhibitor, partial curve, poor fit] |
| Cc1ccc(-c2nc(C(=O)N3CCN(c4ccc(C)cc4)CC3)no2)cc1 |  | active: 14.1 µM |
